# PubChem BioAssay AID1030 (National Center for Advancing Translational Sciences (NCATS), 2008)
# Screen size: about 220,000 compounds; about 16,000 (7.3%) were called active. Inconclusive means that the source gave no clear call. Such entries were picked first, then a sample of the others. Calls come from the whole dose curve; as a rule, active = well fitted inhibition curve with a large enough effect (not every such curve was filed as active); inconclusive = small, poorly fitted or top-dose-only effect, or another doubt; inactive = no such curve, though single readings can be large or run the other way. No potency is given beside an inconclusive call; the fits are too rough.
# Target: Aldehyde dehydrogenase 1A1 (Homo sapiens) (UniProt P00352)
# Chain of UniProt P00352 (P00352 whole entry, looked up): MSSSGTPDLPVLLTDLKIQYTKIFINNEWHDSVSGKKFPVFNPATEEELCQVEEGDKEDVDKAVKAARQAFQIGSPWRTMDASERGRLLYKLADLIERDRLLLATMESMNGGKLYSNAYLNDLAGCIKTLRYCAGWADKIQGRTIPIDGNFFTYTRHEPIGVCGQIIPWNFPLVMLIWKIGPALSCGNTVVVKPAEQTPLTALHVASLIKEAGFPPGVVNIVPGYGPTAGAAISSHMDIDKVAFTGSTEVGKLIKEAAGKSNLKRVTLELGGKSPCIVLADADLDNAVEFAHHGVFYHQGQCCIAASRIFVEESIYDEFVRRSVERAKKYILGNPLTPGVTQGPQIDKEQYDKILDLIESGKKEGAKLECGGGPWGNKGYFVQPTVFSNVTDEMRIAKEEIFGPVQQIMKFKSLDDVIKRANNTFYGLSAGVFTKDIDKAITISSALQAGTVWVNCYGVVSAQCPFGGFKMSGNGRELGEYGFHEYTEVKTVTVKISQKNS
# Experiment: qHTS Assay for Inhibitors of Aldehyde Dehydrogenase 1 (ALDH1A1)
# Conditions: Purified ALDH1A1, NADH fluorescence, propionaldehyde substrate; series mostly up to 75.3 µM
# Potency is the fitted concentration of half-maximal effect; tags give direction and shape of the fitted curve.
row,Compound,Potency
1,CCC(c1nnnn1Cc1ccco1)N(CCN1CCOCC1)Cc1cc2cc(C)ccc2[nH]c1=O (stereo unspecified),"inconclusive [inhibitor, partial curve]"
2,Cc1cc(O)c(C(C)C)cc1NC(=O)Nc1cccc2ccccc12,inactive
3,Cc1ccc(OCCCN2CCOCC2)c([N+](=O)[O-])c1,"inconclusive [inhibitor, single point]"
4,COc1ccc(Cl)cc1C(=O)Nc1ccc(S(=O)(=O)N2CCCC2)cc1,"inconclusive [inhibitor, single point]"
5,COc1ccc(Cl)cc1N(C)C(=O)CCc1nc(-c2ccc(C)cc2)no1,inactive
6,CC1CCC/C(=N/Nc2nc3ccccc3s2)C1 (stereo unspecified),"inconclusive [inhibitor, single point]"
7,CC(C)(C)S(=O)(=O)c1ccc(S(=O)(=O)C(C)(C)C)s1,inactive
8,O=C(C1CCCN(c2nnc(-n3cccc3)s2)C1)N1CCN(c2ccccc2)CC1 (stereo unspecified),"inconclusive [inhibitor, single point]"
9,COc1ccc(OC)c(C2C(C(=O)c3sc(C)nc3C)=C(O)C(=O)N2CCN2CCOCC2)c1 (stereo unspecified),inactive
10,Cc1ccc(S(=O)(=O)N/N=C/c2c(C)nn(-c3ccccc3)c2C)cc1,"inconclusive [inhibitor, partial curve]"
11,Cc1nc(NC(=O)c2cc3c(s2)CCCCC3)sc1C(=O)N(C)C,"inconclusive [inhibitor, partial curve]"
12,COc1ccc(CCNc2oc(Cc3cccc4ccccc34)nc2C#N)cc1OC,active: 7.08 µM
13,Cc1cc(C(=O)OCC(=O)c2c(N)n(C)c(=O)n(C)c2=O)c(C)n1-c1ccccc1,"inconclusive [inhibitor, single point]"
14,COc1cccc(N=CC=C2OC(C)(C)C(C)(C)O2)c1,"inconclusive [inhibitor, partial curve]"
15,CCOC(=O)C1CCN(c2c(N3CCCCCC3)c(=O)c2=O)CC1,"inconclusive [inhibitor, partial curve, poor fit]"
16,COc1ccc(NC(=O)CCc2nc(-c3ccc(C)cc3)no2)c(OC)c1,"inconclusive [inhibitor, full curve, poor fit]"
17,COc1cc2c(cc1OC)CN(C(=O)c1cccs1)CC2,inactive
18,Cc1noc(NS(=O)(=O)c2cccc3c(N(C)C)cccc23)c1C,inactive
19,CC1=CC(C)(C)N2C(=O)C3(C(C#N)=C(N)Oc4cc(O)ccc43)c3cccc1c32 (stereo unspecified),inactive
20,CCC(=O)Nc1c(S(=O)(=O)c2ccc(C)cc2)c2nc3ccccc3nc2n1C(C)c1ccccc1 (stereo unspecified),"inconclusive [inhibitor, single point]"
21,COc1cccc2c1OC1(C)CC2N(C(=O)c2ccco2)C(=S)N1c1ccc(F)cc1 (stereo unspecified),inactive
22,CC(C)(C)C1(C)OC(=O)C(=Cc2ccc(OCC(=O)Nc3ccccc3)cc2)C(=O)O1 (stereo unspecified),inactive
23,CCOc1ncccc1C(=O)Nc1ccc(F)c(Cl)c1,inactive

row,Compound,Potency
1,Cc1ccc2cc(/C=C(\C#N)C(N)=O)c(N3CCCCC3)nc2c1,active: 11.2 µM
2,CCc1nc2ccccc2c(NC(=O)CN2CCC(C)CC2)c1C,"inconclusive [inhibitor, single point]"
3,Cc1cc(C)n(-c2nnc3n2N=C(c2ccccc2)CS3)n1,"inconclusive [inhibitor, single point]"
4,CCN1CCN(C(=O)c2ccc(Sc3ccccc3Cl)c([N+](=O)[O-])c2)CC1,"inconclusive [inhibitor, single point]"
5,CCCCn1c(SCC(N)=O)nc2ccc(N3CCOCC3)cc2c1=O,"inconclusive [inhibitor, partial curve]"
6,NNC(=O)c1ccc(OCc2nc3ccccc3[nH]2)cc1,"inconclusive [inhibitor, single point]"
7,COc1ccc(C)cc1NC(=O)CSc1nnc(-c2ccco2)n1N,inactive
8,NC1=NC2(CCCCC2)N(c2ccc(F)cc2)C(N)=N1,inactive
9,Cc1ccccc1-c1ccc2ncnc(N(C)C)c2c1,"inconclusive [inhibitor, single point]"
10,CC(C)(C)c1ccc(/C=C2\Oc3c(ccc(O)c3CN3CCN(CCO)CC3)C2=O)cc1,inactive
11,COC(=O)c1cc(NC(=O)C2CC=CCC2C(=O)O)cc(C(=O)OC)c1 (stereo unspecified),active: 12.6 µM
12,N#Cc1cn(CCCOc2ccccc2)c2ccccc12,inactive
13,CCC(C)c1ccc(OCCN2CCCC2)cc1 (stereo unspecified),"inconclusive [inhibitor, single point]"
14,Cc1cc2c(c(=O)n1CCN(C)C)C(c1ccccc1Br)C(C#N)=C(N)O2 (stereo unspecified),"inconclusive [inhibitor, partial curve, poor fit]"
15,COCCn1c(C)cc(/C=C2\NC(=S)N(C)C2=O)c1C,active: 15.8 µM
16,O=C(COC(=O)c1sc2ccccc2c1Cl)NCC1CCCCC1,"inconclusive [inhibitor, single point]"
17,Cc1ccc(N(CC(O)Cn2c3ccccc3c3ccccc32)S(C)(=O)=O)c(C)c1 (stereo unspecified),"inconclusive [inhibitor, single point]"
18,O=c1[nH]c2cc3c(cc2cc1CN(CCCO)Cc1nnnn1Cc1ccc(F)cc1)OCO3,"inconclusive [inhibitor, partial curve]"
19,CCOc1c(C=C(C#N)C#N)c2ccccc2n1CC,"inconclusive [inhibitor, single point]"
20,CC(=O)c1cc2c(cc1NC(=O)c1c(-c3ccccc3)noc1C)OCO2,"inconclusive [inhibitor, single point]"
21,CC(C)c1nnc(NC(=O)CSc2nnc(-c3ccco3)o2)s1,"inconclusive [inhibitor, partial curve, poor fit]"
22,COc1ccc(C(=O)CSc2nnc(CN3CCCCC3)n2-c2ccc(F)cc2)cc1,"inconclusive [inhibitor, partial curve]"
23,C=CCSC1=C(C#N)C(c2ccc(C(C)C)cc2)CC(=O)N1 (stereo unspecified),active: 28.2 µM
